Experimental data from the supplement of paper PMC3334620.
Whole data set: some 33,000 sequences, median “E-score (-0.5 to 0.5)” near -0.032, cut for the highest 2% near 0.36. This is one part of the list.

Molecular target: T1, Sko1 (UniProt Q02100)
T1 sequence: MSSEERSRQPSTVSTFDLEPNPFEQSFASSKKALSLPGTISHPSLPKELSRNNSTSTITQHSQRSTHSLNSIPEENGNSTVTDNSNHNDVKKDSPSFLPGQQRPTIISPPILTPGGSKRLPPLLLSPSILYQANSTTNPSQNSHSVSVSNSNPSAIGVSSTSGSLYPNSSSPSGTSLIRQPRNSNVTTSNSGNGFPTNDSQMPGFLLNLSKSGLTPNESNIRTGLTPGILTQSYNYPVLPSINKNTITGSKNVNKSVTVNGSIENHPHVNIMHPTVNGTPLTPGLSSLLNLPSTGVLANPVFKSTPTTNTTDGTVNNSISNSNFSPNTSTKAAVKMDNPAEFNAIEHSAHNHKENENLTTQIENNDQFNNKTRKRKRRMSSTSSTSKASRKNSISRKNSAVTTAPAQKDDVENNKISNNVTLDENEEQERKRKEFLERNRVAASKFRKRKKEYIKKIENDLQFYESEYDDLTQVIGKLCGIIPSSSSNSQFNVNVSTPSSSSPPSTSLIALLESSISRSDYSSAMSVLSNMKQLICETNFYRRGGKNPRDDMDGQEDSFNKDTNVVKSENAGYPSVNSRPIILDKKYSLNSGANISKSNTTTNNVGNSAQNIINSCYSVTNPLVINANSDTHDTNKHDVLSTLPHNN
Test: PBM E-score (8-mer binding enrichment) (E-score (-0.5 to 0.5)); higher = stronger / more preferred TF binding; most listed sequences are background and not binding sites
Details: protein concentration: 200 nM; construct: GST-full length
Outline: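 Using PURExpress in vitro transcription/translation, GST-tagged yeast transcription factors were made in full-length or DNA-binding-domain form. These were applied at about 100-200 nM to double-stranded universal all-10-mer Agilent arrays, and bound protein was detected with fluorescent anti-GST. Scans were normalised with masliner before the Universal PBM Analysis Suite assigned E-scores to ungapped eight-base words pooled with their reverse complements.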

Sequence | PBM E-score
AAGTCTCT | -0.165
GAGCTCAC | -0.192
CAATGTGA | 0.243
ATCTACAG | -0.0684
TATGCGGA | -0.0556
ACGGATTC | -0.087
CGCACGCA | 0.211
AGCTCGGA | -0.295
CAGGGACA | -0.103
GTATTTCA | 0.239
CACCCCAC | 0.0181
AGTGTTGG | -0.143
TAGGAAGA | -0.185
GAGGCGCC | -0.117
CGTTGTTA | 0.162
CAACTACG | 0.31
CGAGTACG | 0.226
CGCTGGGA | -0.283
AAATATCG | 0.196
TCTGTAAA | -0.0019
ACCAAGGT | -0.0516
ACCATCCT | -0.0485
CTGAGGCC | -0.213
TGCTAGAA | 0.0276
GTCTCCTA | 0.0919

Sequence | PBM E-score
GATCGGAA | -0.139
ATTAACTG | 0.272
GATAATGC | 0.026
ACAAAGAA | 0.264
GAATAAGC | -0.0229
AATCAGCT | 0.165
CGTGACGC | 0.422
CAAACCCC | -0.191
AACAGCGT | 0.0503
CGAGGCAA | -0.12
CGAATAAA | 0.16
TCACTCGA | 0.0405
ATCGGTAA | 0.0669
AGGCACAG | -0.128
AGCCTTGA | -0.062
AGTTGCTA | 0.175
CAGACACA | 0.112
CTAGGGTC | -0.163
CACGGGCG | -0.325
AACACCAT | 0.0371
ACAAAAAT | 0.218
AGAAGTGA | -0.0731
ATCTTAGC | 0.00882
CGGCGTAC | -0.0639
AACGCAAA | 0.175

Sequence | PBM E-score
ATAACGCG | 0.184
GCATTAAA | 0.184
CCGAAGGC | -0.292
GATAGCGC | -0.0838
AGATGGCC | -0.0253
ACTACTCG | 0.0191
GGATGAAA | 0.033
CTTCTAGC | -0.283
CATGGAAC | -0.157
CTCAAGAA | -0.117
CCACTGCC | -0.139
AAGCCGCC | -0.418
AGAGTACC | -0.0677
ACTAAGGG | -0.238
AGCAGTTA | 0.0416
CTTCTCTA | -0.284
AATACCTC | -0.0107
AGAACCAT | 0.092
TAATTTAA | 0.268
GATCTGCA | -0.192
CATAGTCC | -0.0594
TCTTCTAA | 0.038
ACGCAAGC | 0.327
ATGATCAC | 0.184
CACCGTGA | -0.0965

Sequence | PBM E-score
ACGCCGCT | -0.0909
ACCCGCAG | -0.158
AAACCTAC | 0.0275
AACATATT | 0.167
GGTCATTA | 0.232
ACGGAAGT | -0.0514
CGGATGTC | -0.264
CCGTCACC | 0.101
ACATCAGG | 0.0353
AACGTTCT | 0.167
ATGCCATA | 0.089
AGAGGGCT | -0.406
ATTTAGGG | 0.0528
ACGCATTA | 0.293
AGGATACT | -0.102
AGAATAGA | 0.0185
ACCAGCAT | -0.0909
ATTGTTTG | 0.17
TCAGTTCA | 0.0281
ACTTGCAA | 0.0608
AAGGTAAC | 0.0186
TGGGCACA | -0.00527
ATGGGCAA | -0.138
GTGTGAAC | 0.0263
AACCCTGT | -0.266

Sequence | PBM E-score
AGCCCTTG | -0.296
GATTGCTA | -0.0351
GGGAGAAC | -0.181
TAGATCGA | 0.0983
CACTATCC | -0.124
CCGATGGC | -0.219
AAAAAAGC | 0.126
GATCGGCA | -0.198
CGCGACCC | -0.00302
TGCTAAAA | 0.0515
CAATTCTG | -0.209
TCGACAGA | -0.0554
AATGGTCA | 0.0593
GCTGAATA | 0.064
ATAATTTA | 0.222
ACGTCCAG | 0.224
AGAAGACT | -0.156
CATTTGCG | 0.179
AATACTCT | 0.0267
ATCCCTCA | -0.128
AGTGCGAA | -0.188
CTAGCCAA | -0.0615
CGTACCCA | 0.133
TACGTTAA | 0.413
AGAATCTC | -0.0337

Sequence | PBM E-score
ATTACGGC | 0.303
GTTGGAAA | -0.00433
GCTCATTA | 0.0713
GGTATACA | 0.0243
CCGGCCCG | -0.325
ATAGGAAC | -0.00132
ATACCTTG | 0.0186
AAACAGAG | 0.02
AGGCATAT | 0.127
ACTGCAGG | -0.11
GGGTTCCA | -0.342
GTGCTATA | 0.182
CTTCAAGC | -0.107
GAGCCCTC | -0.351
CAGAGTTA | 0.0112
ACGATTGA | 0.157
CCACCCGA | -0.113
CGACCGTA | -0.292
CCCATGGA | -0.189
CATTGAAA | 0.23
AGCTGTAC | -0.0899
ATTCATGG | -0.00923
GCCGCTAA | -0.248
ATACATGA | 0.183
CGCCAAGA | -0.248

Sequence | PBM E-score
ACCTGCAA | -0.178
CAATTCTA | 0.0756
AAGTTCTA | 0.0364
CGACCTTA | 0.0387
AATAGGTA | 0.184
TTATTGAA | 0.0971
CGGTGGCA | -0.114
AGATGTGC | -0.105
AAAACCAT | 0.0395
AGCACCAG | -0.12
GCACCACA | -0.156
TAACGAGA | 0.238
CCGCCTCC | -0.299
GGAATGCC | -0.15
AACTTACT | -0.0498
ACGCCAGG | 0.0709
CCGATGTC | -0.0277
CAGCTAAC | -0.128
TCATCTCA | 0.224
ATATCTTA | 0.136
ACACTGGG | -0.32
ACCTAGGA | -0.0432
